# Data taken from PMC4336329 (PLoS ONE, 2015).
# Among all 310,000 compounds or so, about 2,200 (0.71%) showed an effect of 50% or more. The effect is printed as a negative number. This is one part of the list.
# Biological target: human ether-à-go-go-related gene (hERG) potassium channel (human, UniProt Q12809)
# Assay: primary screen, population patch clamp on CHO cells stably expressing hERG
# Chain of human ether-à-go-go-related gene (hERG) potassium channel (Q12809 whole entry, looked up): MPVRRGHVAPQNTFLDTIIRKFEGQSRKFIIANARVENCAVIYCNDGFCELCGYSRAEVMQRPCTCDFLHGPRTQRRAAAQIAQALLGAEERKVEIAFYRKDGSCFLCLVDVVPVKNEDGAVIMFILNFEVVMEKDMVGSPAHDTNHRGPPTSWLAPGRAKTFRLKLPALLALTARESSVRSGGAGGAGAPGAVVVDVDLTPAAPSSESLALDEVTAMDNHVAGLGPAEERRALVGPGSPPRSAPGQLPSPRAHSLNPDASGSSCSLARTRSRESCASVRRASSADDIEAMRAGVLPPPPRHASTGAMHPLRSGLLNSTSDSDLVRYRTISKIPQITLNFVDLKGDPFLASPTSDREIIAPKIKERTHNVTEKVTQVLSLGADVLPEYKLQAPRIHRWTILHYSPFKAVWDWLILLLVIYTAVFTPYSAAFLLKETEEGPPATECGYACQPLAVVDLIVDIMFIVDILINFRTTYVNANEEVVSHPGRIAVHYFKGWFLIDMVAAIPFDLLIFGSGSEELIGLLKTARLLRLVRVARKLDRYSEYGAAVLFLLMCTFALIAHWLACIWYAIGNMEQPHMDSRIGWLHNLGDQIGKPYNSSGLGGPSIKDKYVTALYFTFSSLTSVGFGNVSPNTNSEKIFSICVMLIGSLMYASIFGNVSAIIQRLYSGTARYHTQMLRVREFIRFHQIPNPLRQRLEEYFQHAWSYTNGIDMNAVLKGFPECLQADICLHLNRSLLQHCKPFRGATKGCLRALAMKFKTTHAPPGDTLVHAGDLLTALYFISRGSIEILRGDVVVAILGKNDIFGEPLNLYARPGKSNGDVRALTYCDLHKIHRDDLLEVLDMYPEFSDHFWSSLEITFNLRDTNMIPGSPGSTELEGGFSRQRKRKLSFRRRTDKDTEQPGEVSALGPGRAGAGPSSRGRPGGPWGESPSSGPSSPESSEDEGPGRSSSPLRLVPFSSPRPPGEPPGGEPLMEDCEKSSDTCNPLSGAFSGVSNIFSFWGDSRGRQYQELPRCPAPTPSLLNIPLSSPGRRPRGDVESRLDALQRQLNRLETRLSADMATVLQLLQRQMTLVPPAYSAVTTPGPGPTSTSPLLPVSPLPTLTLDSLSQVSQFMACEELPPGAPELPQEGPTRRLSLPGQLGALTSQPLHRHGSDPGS
row,Compound,"hERG current change (%, negative = inhibition) at 1uM"
1,C/C(=N\N1C(=O)c2ccccc2NC1c1ccco1)c1ccccc1O (centres unmarked),21.9%
2,CC(C)Oc1cccc(C(=O)C2CCCN(C(=O)c3noc4c3CCCC4)C2)c1 (centres unmarked),-10.9%
3,C[n+]1ccccc1/C=C/c1cc(Br)ccc1O.[I-],12.9%
4,Cc1cc(Cl)c2oc(C(=O)NCCC3CCCCO3)c(C)c2c1 (centres unmarked),14.1%
5,O=C(OC(C(=O)Nc1ccc([N+](=O)[O-])cc1Br)c1ccccc1)c1ccccc1 (centres unmarked),0.0853%
6,O=S(Cc1ccc(Br)cc1)Cc1nnc(SCc2ccc(Cl)cc2)n1-c1ccccc1 (centres unmarked),-0.797%
7,Cc1ccc(S(=O)(=O)N(C)C)cc1NC(=O)COC(=O)c1ccc(Cl)cc1,9.01%
8,CCOCCCn1c(=S)[nH]c2cc(C(=O)NCCOC)ccc2c1=O,11.3%
9,CC1Oc2ccccc2OC1(O)c1ccc2ccccc2n1 (centres unmarked),2.17%
10,COc1ccccc1-c1nnc(NC(=O)c2ccc3c(c2)OCO3)s1,4.67%
11,Cc1ccc(Cn2c(SCC(=O)N/N=C/c3ccc(C)o3)nc3ccccc32)cc1,-13%
12,COc1ccc(N2CC(C(=O)N(C)CC(=O)Nc3ccc(Cl)c(C(F)(F)F)c3)CC2=O)c(OC)c1 (centres unmarked),4.92%
13,CC1CCCCN1C(=O)CSc1nc2cc3c(cc2c(=O)n1Cc1ccc2c(c1)OCO2)OCO3 (centres unmarked),5.74%
14,O=Cc1ccc(Oc2nc(Cl)ncc2F)cc1,15.2%
15,CCOC(=O)c1cc2sccc2n1CC(=O)N1CCN(C(=O)c2ccco2)CC1,-15.9%
16,O=C(CCc1nc(-c2ccccc2Cl)no1)NCCc1ccccc1,7.62%
17,CC1(C(=O)Nc2ccc3ccccc3c2)CC1(Br)Br (centres unmarked),6.42%
18,c1ccc(C(c2ccccc2)c2ccn[nH]2)cc1,10.5%
19,CC1N(O)C(C)(C)C(c2ccccc2)=[N+]1[O-] (centres unmarked),8.85%
20,Clc1ccc(-c2cccs2)nn1,7.52%
21,CCOC(=O)C(NC(=O)NCc1ccc(OC)cc1)(OCC)C(F)(F)F (centres unmarked),13.6%
22,COc1ccc(-c2cn3cc(C)ccc3n2)cc1OC.Cl,5.46%

row,Compound,"hERG current change (%, negative = inhibition) at 1uM"
1,CCN(CC)CCn1c(=S)[nH]c2ncccc2c1=O,2.09%
2,O=C(NC(NC(=S)Nc1ccccc1Cl)C(Cl)(Cl)Cl)c1cccc(Cl)c1 (centres unmarked),9.62%
3,CC(=O)c1cccc(NC(=O)c2cc(-c3cccs3)on2)c1,18.3%
4,Cn1c(CS(=O)Cc2c(Cl)cccc2Cl)nnc1SCc1c(Cl)cccc1Cl (centres unmarked),-11.4%
5,CCn1c(=N)c(S(=O)(=O)c2ccccc2)cc2c(=O)n3ccccc3nc21,0.819%
6,CCOc1ccc(CC(=O)N2CCN=C2SC)cc1,6.65%
7,Cn1c(N/N=C2\CCCc3ccccc32)nc2c1c(=O)n(Cc1ccccc1)c(=O)n2C,-0.318%
8,CC(C)C1N(C(=O)CN2CCCC2)CCN1S(=O)(=O)c1ccccc1 (centres unmarked),9.14%
9,CC(C)C(=O)c1cn(Cc2ccc(C#N)cc2)c2ccccc12,1.95%
10,CN1CCN(CCCNC(=O)C2CC(=O)N(C3CCCCC3)C2)CC1 (centres unmarked),7.52%
11,CC(OC(=O)CCN1C(=O)C2CC=CCC2C1=O)C(=O)Nc1cccc(Cl)c1 (centres unmarked),-4.43%
12,COc1ccccc1NC(=O)c1ccccc1NC(=O)c1cc(Cl)ccc1NC(=O)c1ccco1,6.24%
13,O=[N+]([O-])c1ccccc1N/N=C/c1ccccc1,13.3%
14,CC(NC(=O)c1ccc(Cl)cc1)c1nnc(SCc2ccc([N+](=O)[O-])cc2)n1C (centres unmarked),-17.1%
15,NS(=O)(=O)c1ccc(CCNS(=O)(=O)c2cccc3nsnc23)cc1,9.84%
16,Cc1ccc(S(=O)(=O)N[C@@H](C)C(=O)N2CCC(C(=O)N[C@@H](Cc3ccccc3)C(=O)O)CC2)cc1,17.7%
17,Cc1ccc(NC(=O)CCC(=O)OC(C)C(=O)c2ccccc2)cc1 (centres unmarked),12.8%
18,Cc1ccccc1C(=O)Nc1ccc(S(=O)(=O)N2CCOCC2)cc1,9.47%
19,CC1(C)C(=O)OC(c2cccs2)C2(CCCCC2)C1=O (centres unmarked),5.41%
20,CC1CCN(C(=O)c2cccc(NC(=O)c3cccs3)c2)CC1,16.6%
21,Cc1sc(CO)c(Sc2ccccc2)c1C(=O)O,11.7%
22,CCCCOc1ccc(C2C(=O)N(C3CCCCC3)CC(=O)N2CC2CCCO2)cc1 (centres unmarked),-9.42%
